Measured values taken from publication PMC11602027.
Results are given in words; binding and its absence hold for the method and conditions named. In cells and extracts the contact can be indirect. Some binding calls cover weakened binding; strength is not graded here. Tags and fused reporters may be left off the sequences shown.

Assays:
GST-Tea4 (S. pombe) = biological target: T1, GST-Tea4 (S. pombe) (UniProt O60132); assay: pull-down; 2 to 10 μg GST-tagged protein purified from E. coli and coupled to GS beads, incubated 2 h with S. pombe cell extracts (2 to 3 mg total protein; 50 mM Tris-HCl pH 7.5, 20 mM NaCl, 0.5% NP-40, 10% glycerol); blotted with anti-HA or anti-GFP; GS beads alone as control; only the target purified
T1 sequence: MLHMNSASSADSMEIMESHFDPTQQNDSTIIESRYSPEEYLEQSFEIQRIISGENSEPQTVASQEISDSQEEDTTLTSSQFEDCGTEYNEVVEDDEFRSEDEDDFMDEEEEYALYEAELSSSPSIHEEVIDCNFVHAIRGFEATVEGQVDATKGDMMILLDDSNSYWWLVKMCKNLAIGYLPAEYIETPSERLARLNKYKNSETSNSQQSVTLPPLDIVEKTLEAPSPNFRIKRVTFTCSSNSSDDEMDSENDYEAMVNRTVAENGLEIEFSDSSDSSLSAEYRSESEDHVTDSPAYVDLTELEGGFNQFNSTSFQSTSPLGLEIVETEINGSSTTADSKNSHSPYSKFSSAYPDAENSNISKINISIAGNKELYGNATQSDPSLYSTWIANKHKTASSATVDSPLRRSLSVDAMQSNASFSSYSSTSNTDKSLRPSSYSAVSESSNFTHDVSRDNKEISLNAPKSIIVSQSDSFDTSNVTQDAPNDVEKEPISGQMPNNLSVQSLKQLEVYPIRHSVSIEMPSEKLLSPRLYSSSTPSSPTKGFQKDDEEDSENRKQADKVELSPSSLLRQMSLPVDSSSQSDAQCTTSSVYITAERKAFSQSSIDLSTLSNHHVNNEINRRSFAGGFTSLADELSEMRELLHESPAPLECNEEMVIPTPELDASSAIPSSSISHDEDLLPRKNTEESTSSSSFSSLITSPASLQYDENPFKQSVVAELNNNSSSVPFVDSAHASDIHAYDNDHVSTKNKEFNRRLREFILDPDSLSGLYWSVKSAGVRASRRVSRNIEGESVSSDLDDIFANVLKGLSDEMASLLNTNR

Tea1-GFP (S. pombe) = biological target: T2, Tea1-GFP (S. pombe) (UniProt P87061); assay: co-IP; S. pombe extracts (10 mM Tris-HCl pH 7.5, 150 mM NaCl, 0.5 mM EDTA, 0.5% NP40) precipitated with GFP-Trap magnetic beads, 1 h at 4°C; blotted with anti-HA or anti-GFP
T2 sequence: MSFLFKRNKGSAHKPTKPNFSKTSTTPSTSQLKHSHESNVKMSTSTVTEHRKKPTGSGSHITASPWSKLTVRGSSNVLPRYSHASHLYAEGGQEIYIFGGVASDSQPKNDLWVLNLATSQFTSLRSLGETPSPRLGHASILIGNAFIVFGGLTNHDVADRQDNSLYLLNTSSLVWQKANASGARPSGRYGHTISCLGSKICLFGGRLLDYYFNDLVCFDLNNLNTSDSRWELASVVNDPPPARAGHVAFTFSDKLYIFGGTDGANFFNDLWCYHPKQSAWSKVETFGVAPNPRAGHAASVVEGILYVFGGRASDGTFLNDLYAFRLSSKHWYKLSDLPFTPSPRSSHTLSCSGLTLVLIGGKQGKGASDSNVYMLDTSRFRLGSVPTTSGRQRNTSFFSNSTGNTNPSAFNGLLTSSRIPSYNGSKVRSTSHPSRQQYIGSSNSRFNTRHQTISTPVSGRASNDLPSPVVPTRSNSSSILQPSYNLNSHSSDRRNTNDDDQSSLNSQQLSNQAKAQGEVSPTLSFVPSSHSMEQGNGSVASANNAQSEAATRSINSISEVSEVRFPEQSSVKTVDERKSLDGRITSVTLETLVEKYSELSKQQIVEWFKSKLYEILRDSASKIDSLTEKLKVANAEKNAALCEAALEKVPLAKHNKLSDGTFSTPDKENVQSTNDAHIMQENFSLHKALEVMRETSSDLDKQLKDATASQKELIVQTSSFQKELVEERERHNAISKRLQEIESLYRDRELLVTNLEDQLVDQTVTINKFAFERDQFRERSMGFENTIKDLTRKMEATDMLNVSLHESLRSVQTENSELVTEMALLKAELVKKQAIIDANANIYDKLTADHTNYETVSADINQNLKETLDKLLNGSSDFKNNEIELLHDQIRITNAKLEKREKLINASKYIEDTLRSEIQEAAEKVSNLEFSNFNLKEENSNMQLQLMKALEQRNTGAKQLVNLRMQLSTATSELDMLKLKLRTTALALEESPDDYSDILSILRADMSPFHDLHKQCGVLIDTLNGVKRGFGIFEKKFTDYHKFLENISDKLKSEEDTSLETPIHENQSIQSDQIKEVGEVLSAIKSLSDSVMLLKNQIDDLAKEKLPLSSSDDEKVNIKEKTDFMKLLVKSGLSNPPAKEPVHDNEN

[1] = biological target: T3, GFP-tagged Tea4 (S. pombe) (UniProt O60132); assay: as above
T3 sequence: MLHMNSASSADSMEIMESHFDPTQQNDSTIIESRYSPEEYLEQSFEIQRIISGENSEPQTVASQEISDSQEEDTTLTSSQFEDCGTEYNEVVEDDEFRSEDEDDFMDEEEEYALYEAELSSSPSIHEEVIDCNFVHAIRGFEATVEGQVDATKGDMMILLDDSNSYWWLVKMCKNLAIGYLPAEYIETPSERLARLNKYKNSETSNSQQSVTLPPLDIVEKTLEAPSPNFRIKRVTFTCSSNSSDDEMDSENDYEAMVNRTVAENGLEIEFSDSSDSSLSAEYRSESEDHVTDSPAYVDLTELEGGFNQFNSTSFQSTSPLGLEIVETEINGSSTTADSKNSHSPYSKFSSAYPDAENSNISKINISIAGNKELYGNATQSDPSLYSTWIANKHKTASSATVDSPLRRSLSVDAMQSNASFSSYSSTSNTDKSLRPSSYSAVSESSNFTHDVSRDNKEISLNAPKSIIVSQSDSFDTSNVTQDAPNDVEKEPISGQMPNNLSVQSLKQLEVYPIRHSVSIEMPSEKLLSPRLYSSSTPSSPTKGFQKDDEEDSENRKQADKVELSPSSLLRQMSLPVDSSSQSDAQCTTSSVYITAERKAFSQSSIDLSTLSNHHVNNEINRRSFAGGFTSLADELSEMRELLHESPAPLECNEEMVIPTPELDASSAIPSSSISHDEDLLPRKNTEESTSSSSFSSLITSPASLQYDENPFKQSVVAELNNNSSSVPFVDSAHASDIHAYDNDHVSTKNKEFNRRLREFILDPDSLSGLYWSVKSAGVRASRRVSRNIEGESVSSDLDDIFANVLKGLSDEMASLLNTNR

B1: HA-tagged Rgf1 (protein, UniProt Q9Y7U6 1-1334)
chain: MDYRHPNALGVNESSRAYEEIFGAPRKREPARTVSTPAFMEPAPVSKKPLPPPTRRLPRKPLPFRSTSLQPPSSQPPAPPTHQREASPVKNIEHSESFPSVFGTSNNHQIVPLTLKDGNDFGALYASLNTTPHFPQVSNHAPNNSNSPSLTWHTSSGDDSNQNPFFVRRQSQSSTSPVSDSVDENLLSAVSSVTESVETNLHLDQNYPYGSPVRSSKNPFLSSNSRLPTDDSSHTVGSHSFTSGTHPPIVSSNSAFTLPNAVTPAAQAPLIRSVSEYPANVSPPAQSLQLPKSTSNPADLHLSIASASSHKNIFSGLDVFSNVFHGPSTTLRDREHDMRNRSFDHSTLAHYEAVKQQRLGVEPTARSFTLSSYKSRASGNSLINDRSSTTTPTFVNSEASSPVHKNKRRRRIYAALLSRVASELLDRLQLGDITKDGLIYSNAFTGDHAVTVLMGIIHTSDRNLALLVGRSLDAQKFIHDVTYDHRLRDSHREIYQLQGTGYRPFLRANDNASINNKNHHKELEDNESGTRISPSTLGDTSFPNGIFTLLTHCYSPTCAKDHPCYSISCPRRLEQQHRLFAKMRANTEQSSSLAFDDKEQKLWIHSVPQEIAYSVSDRERKRQEVICEVIYTERDFVKDLEYLRDYWIKPLWASSCIPERKKEKFIRTVFLNALEVQAVNSKLAEALTKRQNYKPIVDNIADIFLEHVPKFEPFIRYGAGQLYGKYEFEKEKSSNPAFAKFVSDVERLKESRKLELNGYLTKPTTRLARYPLLLEAVLKYTDEGNPDKQDIPKVINIVRGFLSRLNVESGKAENKFNLFHLNQQLVFKPGEHYDLHLLDANRQLIFKGPLKKRSAGSTSSESASDVTLFLFDHALLIVKPKTINKRELLKVFQRPIPLLLLQLFLVDDNGLRIPYSSKQQLAAVSKAANGKPPSRFYPFSLQLLGRRGYEITLYATTEVSRDKWLEHIDNQQTLLQHRNQWFESVTICSNFFVGDNKVNAIGVYDSGRRLLYGTDTGVYVSLRKANSPLQFKPVRALNIPNISQLEVIEEYSLLLLLSDKVLYSYPLEMIDADTTQAPKKARKVSGHTTFFRVGICLGKVLVCAVKSSVLSATIKVFEPVTNYSKTRNMPSLKKFLTVNQDPLRIVKELYIPTESTSVHFLKNKLCVGCTRGFEVVSLDNLETQSLLDPADTSLEFVEKKENVKPIAIYRMNGGEFLLCYSQFAFYVNRDGWRSRPTWFVVWEGSPQNFALSYPYILAFEPTFIEIRHVETSELIHVISGRNIRLLADGRGKLGDGGEIFYACDQRGENCETSVVCSLRLTSAAAHAKEQHVDK
binding (GST-Tea4 (S. pombe)): binds
binding (Tea1-GFP (S. pombe)): no binding
binding [1]: binds
